Data from paper PMC12040169 (PLOS Biology, 2025).
This is one part of the list.

tested on: T1, C. trachomatis L2/434/Bu expressing GFP (CTL2-GFP); set-up: species or system HeLa; C. trachomatis total inclusion area by high-content imaging, normalised to DMSO; conditions: total inclusion area; 28.5 h, 10 µM; inhibitor
T1 construct: L2/434/Bu GFP intracellular growth in HeLa cells
Outline: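 Post-fluorescence-read fixation, DNA staining with Hoechst and high-content imaging; GFP inclusion area and number per well, and nuclei counts, used as proxies for bacterial growth and host viability.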

| Structure (SMILES) | % of control remaining |
| --- | --- |
| Cc1cccc(CN(CC(C)(C)CN)C(=O)Nc2ccccc2C(F)(F)F)n1 [CBK002409C] | 57.3391 |
| COCCNC(=O)C1CCCCC1C(=O)O (centres unmarked) [CBK269135] | 64.0703 |
| CC1(C)CN(c2ccc(Cl)cn2)C1=O [CBK018550] | 46.1445 |
| O=C1c2ccc(Oc3cccc([N+](=O)[O-])c3)cc2C(=O)N1c1ccccn1 [CBK261190] | 89.7583 |
| O=C(C1CCCO1)N1CCC(c2ccc(F)cc2)CC1 (centres unmarked) [CBK283484] | 114.055 |
| CC(C)Oc1ccccc1CN(C)C(C)c1ccc(S(N)(=O)=O)cc1 (centres unmarked) [CBK305436] | 52.9104 |
| COc1cccc(CN(Cc2ccco2)Cc2cncn2C)c1 [CBK282497] | 115.079 |
| COC(=O)c1ccc(N2C(=O)CC(NCCc3ccc(S(N)(=O)=O)cc3)C2=O)cc1 (centres unmarked) [CBK262859] | 117.357 |
| CCn1ncc(Cn2cc(NC(=O)C3CCCCC3C(=O)O)cn2)c1C (centres unmarked) [CBK286859] | 65.8521 |
| O=C(Cn1cccc2cc(-c3cccs3)nc1-2)NC1CC1 [CBK281897] | 100.938 |
| O=C1c2ccccc2S(=O)(=O)N1CC(O)Cn1c2ccc(Br)cc2c2cc(Br)ccc21 (centres unmarked) [CBK262347] | 91.4416 |
| COc1ccc(OC)c(C(C)NC(=O)C2CCN(CCc3c[nH]c4ccccc34)CC2)c1 (centres unmarked) [CBK148763] | 89.7652 |
| CN(C)C(=O)C1(Cc2ccc(-c3cccs3)cc2)CCN(C(=O)Cc2ccccc2)CC1 [CBK285784] | 111.016 |
| COc1ccc(SCC(=O)O)cc1 [CBK111455] | 93.0627 |
| CN1CCCCC[C@@H]2[C@@H]1[C@H](c1ccccc1)CN2C(=O)CN1CCCCCC1=O [CBK285524] | 89.6499 |
| Cc1ccc(C(=O)NNC(=S)Nc2ccc(S(N)(=O)=O)cc2)cc1[N+](=O)[O-] [CBK266866] | 109.734 |
| CN(C)CCN(C)c1cncc(-c2ccc3c(c2)OCO3)n1 [CBK065897] | 135.587 |
| Cc1nccn1CC1(O)CCN(Cc2ccccc2F)CC1 [CBK284961] | 88.4949 |
| COc1ccc(F)cc1-c1ccccc1CC1(C(=O)NCc2cccs2)CCOCC1 [CBK286416] | 97.7623 |
| Cc1cccc2c3c([nH]c12)CCN(C(=O)[C@@H]1C[C@@H]2C=C[C@H]1C2)C3 [CBK281656] | 88.8135 |
| Cc1ccc(F)c(CN2CCN(CCO)[C@@H]3CS(=O)(=O)C[C@@H]32)c1 [CBK307699] | 73.411 |
| Cc1cc2ncc(-c3[nH]ncc3[N+](=O)[O-])cn2n1 [CBK269106] | 79.7391 |
| O=C(N/N=C/c1c[nH]nc1-c1ccccc1)c1cccnc1 [CBK262461] | 100.257 |
| Nc1nc(N)c2ncn([C@H]3C[C@@H](O)[C@@H](CO)O3)c2n1 [CBK201208] | 84.4478 |
| CC(=O)N1CCC[C@H]2NC(=O)CNC(=O)C3(C/C=C/C[C@H]21)CCN(C(=O)c1cc(C)no1)CC3 [CBK292176] | 76.2524 |
| CN(C)CCOCc1ncccc1OCCOC1CCCCO1 (centres unmarked) [CBK045662] | 100.305 |
| COc1ccc(C(NC(=O)c2c(C)nc3sccn23)C2CC(O)C2)cn1 (centres unmarked) [CBK307330] | 52.7525 |

| Structure (SMILES) | % of control remaining |
| --- | --- |
| COC(=O)C1=C(C)N=C2SCCC(=O)N2C1c1ccc(C(C)C)cc1 (centres unmarked) [CBK073523] | 51.8176 |
| CC(C)Nc1nccnc1-c1cccc(O)c1 [CBK037089] | 97.8156 |
| COc1cc(CNn2cnnc2S)ccc1OCC(N)=O [CBK265877] | 109.384 |
| Cc1cc(NC(=O)c2cc(C)[nH]n2)c2ccccc2n1 [CBK116260] | 108.57 |
| O=C(O)c1ccc(S(=O)(=O)N(CC2CC=CCC2)CC2CCCO2)cc1 (centres unmarked) [CBK286685] | 61.1158 |
| CCN(CC)CCN1CCN(c2cncc(-c3cccc(N)c3)n2)CC1 [CBK065751] | 118.868 |
| CCOC(=O)Cn1nnc(-c2ccc(Cl)cc2)n1 [CBK069596] | 99.1104 |
| O=C(NC(n1cnc2c(N3CCCCC3)ncnc21)C(Cl)(Cl)Cl)c1ccccc1 (centres unmarked) [CBK261038] | 71.8334 |
| CC(=O)Nc1cccc(-c2cnc(N)c(NCc3cccnc3)n2)c1 [CBK063562] | 100.151 |
| CC1CCN(S(=O)(=O)c2ccc(NC(=O)CCn3c(=O)oc4ccccc43)cc2)CC1 [CBK268040] | 109.434 |
| N#Cc1cccc(CN2CCC(Cc3ccccc3)CC2)c1 [CBK126380] | 95.3338 |
| COC(=O)c1ccccc1NC(=O)Nc1ccc(N2CCOCC2)c2nonc12 [CBK266830] | 55.881 |
| CC(C)(C)NC(=O)CN1C(=O)N2CCCN=C2c2ccc(Cl)cc21 [CBK284391] | 83.9422 |
| O=C(C1=C(O)C(=O)N(CCCN2CCOCC2)C1c1ccccn1)c1ccc(Cl)cc1 (centres unmarked) [CBK266445] | 91.5634 |
| CCOc1cccc(-c2cn3ccnc3c(NCCc3ccccn3)n2)c1 [CBK066586] | 127.287 |
| Cc1cc(NC(=O)CCc2c(C)nc(N3CCOCC3)[nH]c2=O)no1 [CBK305636] | 28.4076 |
| COc1ccccc1-c1cnc2[nH]c(=O)n(Cc3ccc(F)c(Cl)c3)c2n1 [CBK064662] | 94.2644 |
| NS(=O)(=O)c1ccc(CCNC(=O)c2cccnc2)cc1 [CBK268158] | 91.4038 |
| CCN(CC)CCN(C(=O)N1CCCC1)c1c(C)cccc1C [CBK023237C] | 63.491 |
| Cc1ccc(-n2nc(C(=O)O)c(C)c(C#N)c2=O)cc1C [CBK286987] | 91.5863 |
| CCOC(=O)c1c(NC(=O)CSc2n[nH]c(N)n2)sc(C)c1C [CBK266412] | 96.4165 |
| C/C(=N/NC(=O)C[N+](C)(C)C)c1nn(-c2ccc(Cl)cc2)nc1C [CBK008258C] | 44.366 |
| O=C(O)CSc1nnc(SCc2cccc3ccccc23)s1 [CBK266215] | 113.527 |
| O=C(NCc1cc[nH]n1)N1CCCN(Cc2cccs2)CC1 [CBK305645] | 65.9201 |
| Cc1nnc(-c2cccc(S(=O)(=O)Nc3nnc(C(F)(F)F)s3)c2)o1 [CBK062014] | 92.3055 |
| O=C(O)CCN/C(=N\S(=O)(=O)c1ccccc1)c1ccccc1 [CBK266111] | 133.395 |
| Cc1ccc(OCC(=O)NNC(=O)c2ccco2)cc1 [CBK261800] | 85.9416 |

| Structure (SMILES) | % of control remaining |
| --- | --- |
| O=C(Oc1cccc(-c2cnc3ccccc3n2)c1)c1ccc(S(=O)(=O)N2CCCCC2)cc1 [CBK267785] | 118.645 |
| CC1CCN(Cn2nc(COc3ccccc3)n(-c3ccccc3)c2=S)CC1 [CBK264247] | 114.543 |
| O=C(Nc1cc(Oc2cccnc2)cc([N+](=O)[O-])c1)c1cc2nc(-c3ccco3)cc(C(F)(F)F)n2n1 [CBK262534] | 100.571 |
| CCCc1nnc(SCC(=O)Nc2cccc(C(F)(F)F)c2)n1N [CBK028004] | 94.449 |
| Cc1cc(C)c2c(N)c(-c3ccncc3)sc2n1 [CBK288189] | 114.278 |
| Cc1c(NC(=O)CSc2nncn2C)ccc2nsnc12 [CBK269418] | 60.1468 |
| CN(C)c1ccc(-c2nccnc2NS(=O)(=O)c2ccccc2C(F)(F)F)cc1 [CBK050801] | 88.8033 |
| CSc1ncc(Cl)c(C(=O)Nc2sc3c(c2C(=O)NCc2ccccc2)CCCC3)n1 [CBK268976] | 66.7402 |
| CC(Oc1ccccc1)C(=O)Nc1ccccc1NC(=O)c1ccco1 (centres unmarked) [CBK269636] | 90.0403 |
| COc1ccc(C)cc1NC(=O)c1cnc2n(c1=O)CCS2 [CBK287383] | 103.484 |
| CCn1nc(C)c(-c2cncn2CC(C)N2CCCCC2)c1C (centres unmarked) [CBK281808] | 96.9224 |
| CCCN1CC(NS(=O)(=O)c2cc(-n3cccn3)ccc2OC)CC1=O (centres unmarked) [CBK307285] | 77.9559 |
| O=C1CC(c2ccccc2)c2c(c3ccccc3[nH]c2=O)O1 (centres unmarked) [CBK288237] | 97.3463 |
| O=S(=O)(c1ccc(C(F)(F)F)cc1Cl)N1CCCN(Cc2cccc3c2OCO3)CC1 [CBK063067] | 48.8323 |
| Cc1cnc(Nc2cccc(C3CCCN3C(=O)CCOc3ccccc3C)n2)s1 (centres unmarked) [CBK285972] | 99.0225 |
| CN(C)C(=O)c1cc(Br)cnc1NCCCn1ccnc1 [CBK076378] | 53.5736 |
| COCCn1ccnc1C1CCN(C(=O)Cc2ccc(O)c(F)c2)CC1 [CBK306649] | 58.6709 |
| COc1ccc(CCC(=O)N2CCCC2c2ccc(Cc3ccccc3F)cn2)cc1 (centres unmarked) [CBK285992] | 105.756 |
| COc1ccc(S(=O)(=O)N2CCN(Cc3ccc4c(c3)OCO4)CC2)c(Cl)c1Cl [CBK074433] | 86.2587 |
| CCOc1nnc(CN(CCC(N)=O)c2ccc(F)cc2)s1 [CBK305536] | 71.6307 |
| CC(C)Cn1c(-c2ccc(F)cc2)cnc1SC(C)C(=O)NC(N)=O (centres unmarked) [CBK295635] | 80.5499 |
| CN1CCCC1CCOc1ncccc1OCc1ccccc1 (centres unmarked) [CBK036313] | 99.3414 |
| COc1ccccc1CC(=O)Nc1ncccc1OCCCC#N [CBK304952] | 45.1095 |
| CC(=O)N1C[C@@H](c2cccc(C)c2)[C@@H]2CN(Cc3cccnc3)CC[C@@H]21 [CBK283368] | 98.0855 |
| Cn1c(C(=O)O)ccc1S(=O)(=O)NCc1ccco1 [CBK113686] | 89.6237 |
| CCOc1cc(/C=C2\SC(=N)NC2=O)cc(Cl)c1O [CBK262955] | 51.039 |
